Data on 33 compounds can be found in the supplement of paper PMC3656093.

SMILES strings stand for the structures. ± gives the standard deviation of the averaged measurements. In all, about 1,900 compounds were measured (“CD40L-induced NF-kB luciferase activity, plate-corrected, relative to DMSO (0) and IKK inhibitor VII (-100) controls”: median about 0.032, lowest 2% from about -26 on). The list shows a part of the results.

The assay deals with BL2-NFkB-Luc. As to the kind of experiment: CD40L-induced NF-kB luciferase activity, plate-corrected, relative to DMSO (0) and IKK inhibitor VII (-100) controls (% normalized activity); higher = more NF-kB reporter activity (less inhibition). Conditions: 9.4 µM; stimulus: tCD40L 64 ng/ml; 4.5 h. How it is done: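 BL2 B cells with a stable NF-kB response-element luciferase reporter (BL2-NFkB-Luc), 384-well. Cells were pre-incubated with compound at 9.4 uM for 1 h at 37 C, then stimulated with 64 ng/ml trimerized CD40L for 4.5 h; luciferase was read with Steady-Glo. Signal was normalised per plate in Genedata (median DMSO neutral control = 0, median IKK inhibitor VII at 50 uM = -100) with Assay Median plate-pattern correction; duplicate plates.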
As for `O=c1ccc2c(o1)/C(=C/C=C(Cl)Cl)CCC2`, the “CD40L-induced NF-kB luciferase activity” value was -2.26 ± 3.7.
Then `Cc1cccc(N2CCN(C(=S)c3ccccc3)CC2)c1`, with 6.51 ± 2.4; and `O=c1c(-c2ccc3c(c2)OCCO3)coc2cc(OC3OC(CO)C(O)C(O)C3O)ccc12` (stereo not drawn), with 29.3 ± 9.5; and `C=CCc1cc(Cl)ccc1OCCOCCN(C)C`, with 2.96 ± 3.2.
Regarding `Cn1c(=O)c2c(ncn2Cc2ccccc2)n(C)c1=O`, the “CD40L-induced NF-kB luciferase activity” value was -3.59 ± 7.1.
With `CC(=O)NC1C(OCCOc2ccc(Cl)cc2Cl)OC(COC(C)=O)C(OC(C)=O)C1OC(C)=O` (stereo not drawn), the “CD40L-induced NF-kB luciferase activity” value is -3.11 ± 1.6.
The same measure for `CCOC(=O)C(NC(=O)CCC(=O)Nc1ccc(S(N)(=O)=O)cc1)C(O)c1ccccc1` (stereo not drawn): 0.478 ± 4.7; for `CCOC(=O)C1C(=O)OC2(CCOC(C)(C)C2)C1C(=O)OCC` (stereo not drawn): -0.371 ± 1.7; for `O=C(C1CCCCC1)N1CC(=O)N2CCc3ccccc3C2C1` (stereo not drawn): 0.441 ± 1.9.
Take `Cc1ccc(OCCCCn2ccnc2C)c(C)c1`: the “CD40L-induced NF-kB luciferase activity” value was -9.92 ± 0.16.
`C(=C\c1ccccc1)/CN1CCN(C(c2ccccc2)c2ccccc2)CC1`: the “CD40L-induced NF-kB luciferase activity” value was 1.42 ± 0.85.
Then `Cc1ccc(C(=O)NC(=S)NCCCN2CCOCC2)cc1`, with 8.31 ± 1.3.
Then `COc1ccc(-c2cc(=Nc3ccc(C)cc3)c3ccccc3o2)cc1`, with 2.07 ± 3; and `Cc1ccc(N2CCN(C(=S)c3ccc(-c4cccc([N+](=O)[O-])c4)o3)CC2)cc1`, with -1.43 ± 5.
The same measure for `CCN(CC)C1=C(Cl)C(=O)C(Cl)C12OCCO2` (stereo not drawn): -4.69 ± 4.8.
With `Cc1ccccc1C(=O)Oc1ccc(Sc2ccc(O)cc2)cc1`, the “CD40L-induced NF-kB luciferase activity” value is 2.2 ± 3.6.
On to `Nc1cccc2c1nnn2C1OC(CO)C(O)C(O)C1O` (stereo not drawn), for which the “CD40L-induced NF-kB luciferase activity” value is -1.09 ± 3.5.
Take `CC(C)CC(=O)OC1C(N2CCOCC2)c2c(ccc(/C=C/C(=O)N3CCOCC3)c2O)OC1(C)C` (stereo not drawn): the “CD40L-induced NF-kB luciferase activity” value was -1.24 ± 1.2.
Consider `CN1CCN(CCCN2c3ccccc3Sc3ccc(Cl)cc32)CC1`, for which the “CD40L-induced NF-kB luciferase activity” value came to 5.89 ± 0.32.
As to `N=c1c[n+](N2CCOCC2)[n-]o1`, the “CD40L-induced NF-kB luciferase activity” value came to 9.34 ± 8.2.
On to `CC1(C)CC(NC(=O)C23CCC(C)(C(=O)C2=O)C3(C)C)CC(C)(C)N1` (stereo not drawn), for which the “CD40L-induced NF-kB luciferase activity” value was -0.597 ± 0.005.
In the case of `COc1cccc2c1OCC1COc3c(c(=O)n(C)c(=O)n3C)C21` (stereo not drawn), the “CD40L-induced NF-kB luciferase activity” value is -2.86 ± 0.88.
The same measure for `CC(C)(C)C(=O)N1CCCC1C(=O)O` (stereo not drawn): -4.18 ± 0.47.
Then `COc1ccc(-c2coc3cc(OC(=O)N4CCOCC4)ccc3c2=O)cc1`, with 5.32 ± 1.2; and `O=C(O)C(O)c1ccccc1` (stereo not drawn), with 2.53 ± 5.7; and `COc1ccc(CCN(C)CCCC(C#N)(c2cc(OC)c(OC)c(OC)c2)C(C)C)cc1OC` (stereo not drawn), with -0.471 ± 4.4.
The same measure for `COc1c2occc2c(OC)c2c(=O)cc(C)oc12`: -3.56 ± 14.
For the compound `CSc1cccc(NC(=O)/C=C/c2ccccc2)c1`, the “CD40L-induced NF-kB luciferase activity” value was found to be 81.1 ± 9.6.
The same measure for `CC(C)c1ccccc1OCCNC(=S)NC(=O)c1cccnc1`: 3.51 ± 10.
As for `CC(NCCC(c1ccccc1)c1ccccc1)c1ccccc1` (stereo not drawn), the “CD40L-induced NF-kB luciferase activity” value is -4.35 ± 5.6.
Then `O=c1[nH]c(=O)n(C2CCCO2)cc1F` (stereo not drawn), with -7.09 ± 16; and `CCOCC(=O)Nc1nc2ccccc2s1`, with 50.7 ± 10; and `Oc1ccccc1OCCOc1ccccc1OCCOc1ccccc1O`, with 0.962 ± 5.
